This is an account of results in PubChem BioAssay AID1346428 (National Center for Advancing Translational Sciences (NCATS), 2018).

“And” between values parts separate entries of the source, which are not always exact repeats. Identical values can stand only once. Out of some 48,000 compounds screened, about 1,200 (2.5%) were called active. Not shown: some 2% with an inconclusive outcome.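 How the source made its calls: active means activation of at least 60% and not above a set upper limit (about 1 call in 100 departs from these limits); inconclusive means activation of 40% to 60%, or above that upper limit; inactive means activation under 40%.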 This is one part of the list.

The target of this assay is Probable G-protein coupled receptor 32 (Homo sapiens) (UniProt O75388). In words: qHTS for Agonists of Human Resolvin D1 Receptor DRV1. Further: 0% is about no effect. To be noted: CHO-K1 GPR32 beta-arrestin PathHunter luminescence, 90 min; at 76.9 µM; active compounds read high; zero percent set by DMSO-only wells. The procedure, abridged: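 Beta-arrestin recruitment read-out: luminescence from complemented beta-Gal in CHO-K1 GPR32 PathHunter cells, measured 1 h after detection reagent at ambient temperature following 90 min compound exposure at 37 °C; DMSO served as basal (EC0) control.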
Chain of UniProt O75388 (O75388 whole entry, looked up): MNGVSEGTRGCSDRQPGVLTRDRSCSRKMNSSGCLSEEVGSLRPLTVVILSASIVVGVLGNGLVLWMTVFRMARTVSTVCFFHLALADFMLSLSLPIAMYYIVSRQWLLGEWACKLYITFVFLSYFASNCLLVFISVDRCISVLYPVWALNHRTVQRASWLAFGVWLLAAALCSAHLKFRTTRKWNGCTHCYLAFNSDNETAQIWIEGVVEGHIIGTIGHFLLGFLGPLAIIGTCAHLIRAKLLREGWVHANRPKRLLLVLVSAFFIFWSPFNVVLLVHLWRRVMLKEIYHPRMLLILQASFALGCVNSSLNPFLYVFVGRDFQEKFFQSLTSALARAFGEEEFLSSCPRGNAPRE
In general terms: Quantitative high-throughput screening tests each substance at several concentrations.
Turning to `Cc1ccc2c(c1)-c1nc(-c3ccc(Cl)cc3)cc(-c3coc4ccccc4c3=O)c1CO2`, the activation was inactive: -6.95%.
Turning to `O=C(Nc1ccc2oc(-c3ccccc3F)nc2c1)c1ccccc1Cl`, the activation is inactive: 12.8%.
In the case of `Cc1cccc(CSc2ncc(CO)n2Cc2ccc(F)cc2)c1`, the activation is inactive: 12.6%.
Next, `COc1ccc(NC(=O)CSc2ncc3c(n2)-c2cc(Cl)ccc2N(Cc2ccccc2F)S3(=O)=O)cc1`: inactive: -10.7%.
The figure for `CCCSc1ncc(Cl)c(C(=O)Nc2ccc(S(=O)(=O)Nc3ncccn3)cc2)n1` is inactive: -9.78%; for `Cc1cc(C)c2c(=O)cc(C(=O)Nc3sc4c(c3C(=O)NCc3ccccc3)CCCC4)oc2c1` it is inactive: -15.2%; for `Fc1ccc(-n2ncc3c(NCCCN4CCOCC4)ncnc32)cc1` it is inactive: 9.18%.
Turning to `COC(=O)c1cc(S(=O)(=O)NCC2CCN(Cc3ccc(F)cc3)CC2)cn1C`, the activation was inactive: -11.1%.
Next, `O=C(Nc1ccc2nc(SCC(=O)N3CCCc4ccccc43)sc2c1)c1cccc(F)c1`: inactive: -16.1%; `COc1cc(-c2nnc(SCCOc3ccc(Cl)cc3C)o2)cc(OC)c1OC`: inactive: 1.22%.
`CCOC(=O)c1c(NC(=O)CSc2cn(CCNC(=O)c3ccccc3F)c3ccccc23)sc2c1CCC2`: the activation is inactive: -4.47%.
As for `Cc1ccc2c(c1)N(CCC(=O)NCc1ccc(F)cc1)C(=O)CO2`, the activation was inactive: -12.1%.
With `COc1cccc(CNC(=O)c2ccc(CSc3nc4ccncc4n3Cc3cccc(C)c3)cc2)c1`, the activation was inactive: -2.47%.
Take `Cc1ccc(Cl)cc1N1CCN(S(=O)(=O)c2ccc3[nH]c4c(c3c2)CCCCC4)CC1`: the activation was inactive: -7.46%.
Regarding `COc1cc(NC(=O)CCc2c(C)nn(-c3ccc4nncn4n3)c2C)cc(OC)c1OC`, the activation was inactive: -7.23%.
As to `CCOCCc1nn2c(=O)cc(COC(=O)CNC(=O)c3ccc(C(C)(C)C)cc3)nc2s1`, the activation is inactive: 7.73%.
For `Oc1c(C(c2ccccc2)N2CCN(c3cccc(Cl)c3)CC2)sc2nc(-c3ccco3)nn12` (stereo not drawn), the activation is inactive: -8.38%.
Take `Cc1ccc(CSc2ncc(Cl)c(C(=O)Nc3nc4ccc(C)cc4s3)n2)cc1`: the activation is inactive: -3.21%.
In the case of `O=C(NCc1ccc(F)cc1)c1ccc(CS(=O)Cc2ccc(Cl)cc2)o1` (stereo not drawn), the activation is inactive: -4.14%.
In the case of `Cc1ccc(NC(=O)c2cc3nc(-c4ccc5c(c4)OCO5)cc(C(F)(F)F)n3n2)cc1Cl`, the activation was inactive: -7.94%.
On to `O=c1c(=O)n(-c2ccccc2)ccn1Cc1cccc(C(F)(F)F)c1`, for which the activation is inactive: -2.45%.
Consider `O=C1COc2ccc(-c3cc(-c4ccc(F)cc4)c4c(n3)-c3cc(Cl)ccc3OC4)cc2N1`, for which the activation is inactive: -0.314%.
As for `COc1ccccc1CNS(=O)(=O)c1cc(Br)cc2c1N(C(C)=O)C(C)C2` (stereo not drawn), the activation is inactive: 1.03%.
On to `Cc1ccc(N2CC(c3nnc(Cc4ccc(F)cc4)o3)CC2=O)cc1` (stereo not drawn), for which the activation is inactive: -3.81%.
For the molecule `COc1cc(Cl)c(NC(=O)c2cc(CN3CCCC3)on2)c(OC)c1`, the activation is inactive: 3.92%.
In the case of `Cc1c(C(=O)Nc2ccccc2Cl)sc2ncnc(N(C)C3CCCCC3)c12`, the activation was inactive: -0.0155%.
`CCc1ccc(CNC(=O)C2CCCN(c3nnc(C)c4c(C)n(-c5ccc(OC)cc5)nc34)C2)cc1` (stereo not drawn): the activation is inactive: 2.97%.
Consider `Cc1oc(-c2ccccc2F)nc1CSCC(=O)NCc1ccccc1`, for which the activation was inactive: -21.2%.
Consider `Cc1cccc(C)c1NC(=O)CSc1ncc2c(n1)-c1ccc(Cl)cc1N(Cc1ccccc1)S2(=O)=O`, for which the activation was inactive: -13.7%.
The figure for `CC(CCc1ccccc1)NC(=O)Cn1c(=O)nc(-c2ccccc2F)c2cc(Cl)ccc21` (stereo not drawn) is inactive: -10.4%; for `COc1ccc(Cn2ccnc2SCC(=O)NC2CCCC2)cc1` it is inactive: -12%.
As to `CC(C)C[C@@H]1[C@H](c2ccccc2)OC(=O)N1CCCN1CCCCCC1`, the activation is inactive: -5.63%.
On to `CC(C)c1ccc(NC(=O)C2CCCN(S(=O)(=O)c3cccc4nsnc34)C2)cc1` (stereo not drawn), for which the activation was inactive: -12.4%.
Turning to `COc1ccc2c(c1)CC(C(=O)Nc1cccc(C)c1C)CO2` (stereo not drawn), the activation is inactive: -9.92%.
Next, `COc1cccc(-n2ccnc2SCC(=O)Nc2ccc(Cl)c(Cl)c2)c1`: inactive: -20.6%; `C/C(=C(\CCO)SS/C(CCO)=C(\C)N(C=O)Cc1cnc(C)nc1N)N(C=O)Cc1cnc(C)nc1N`: inactive: 35.1%.
Turning to `COC(=O)c1ccc(NS(=O)(=O)c2c(C)nc3sccn3c2=O)cc1`, the activation is inactive: -6.14%.
`O=C(CSc1nccn1-c1ccc(Cl)cc1)Nc1cccc2ccccc12`: the activation is inactive: -12.3%.
Take `CCOC(=O)Cn1c(=O)n(C2CCCCC2)c2nc(-c3ccc(OCC)cc3)nc(C(N)=O)c21`: the activation is inactive: -6.29%.
Consider `COc1ccc(C2CC(=O)c3cnc4c(-c5ccccc5)c(C)nn4c3C2)cc1OC` (stereo not drawn), for which the activation is inactive: 3.36%.
As to `CSc1ccc(CCNC(=O)c2ccc3c(c2)nc2n3CCCCC2)cc1`, the activation was inactive: -6.17%.
In the case of `COc1ccc(Cl)cc1NC(=O)c1cnc(SC)nc1-c1ccccc1`, the activation was inactive: 6.89%.
Turning to `Cc1ccccc1NC(=O)C(=O)NCC1(c2ccccc2)CCCC1`, the activation was inactive: -23%.
Next, `O=C(CSc1nnc2scc(-c3ccc(Cl)cc3)n12)Nc1cccc(C(F)(F)F)c1`: inactive: 18%; `COc1cc(NC(=O)CC(C)S(=O)(=O)c2ccc3c(c2)CCN3C(C)=O)cc(OC)c1OC` (stereo not drawn): inactive: 6.85%; `CCOc1ccc(Nc2nc(C)c(NC(=O)c3ccc(C)cc3)c(Nc3ccc(OCC)cc3)n2)cc1`: inactive: -2.49%.
As to `CCN1CCN(c2ncc3c(n2)CCN(Cc2sccc2C)C3)CC1`, the activation is inactive: -23%.
In the case of `COc1ccc(Cl)cc1Nc1nc2ccc(C(=O)c3ccccc3)cc2n2cnnc12`, the activation was inactive: -0.561%.
Regarding `CCOC(=O)Cc1ccc(NC(=O)N2CCc3c(sc4c3CCCC4)C2c2ccc(F)cc2)cc1` (stereo not drawn), the activation was inactive: -5.73%.
For the molecule `Cc1ccc(NC(=O)CN(C)S(=O)(=O)c2cccc3cccnc23)cc1F`, the activation is inactive: -11.3%.
Regarding `Cc1sc2ncn(CC(=O)N3CCN(c4ccccc4)CC3)c(=O)c2c1S(=O)(=O)N1CCN(c2ncccn2)CC1`, the activation was inactive: -20.8%.
Next, `CC(C(=O)O)c1ccc(CC2CCCC2=O)cc1` (stereo not drawn): inactive: -8.22% and inactive: -7.31%.
For `CCc1cccc(-n2nnc(-c3nsc(NC(=O)c4ccc(C)cc4)n3)c2C)c1`, the activation was inactive: -1.5%.
For `CN(CC(=O)Nc1ccc(Cl)cc1F)S(=O)(=O)c1ccc2c(c1)n(C)c(=O)c(=O)n2C`, the activation was inactive: -2.16%.
Regarding `Fc1ccc(C(Nc2ccccc2Cl)c2nnc(-c3ccccc3Cl)o2)cc1` (stereo not drawn), the activation was inactive: -8.72%.
Regarding `Nc1ncnc2c1ncn2Cc1c(F)cccc1Cl`, the activation is inactive: 5.02%.
For `CC(C(=O)Nc1ccccc1C(F)(F)F)n1nnc2sc3c(c2c1=O)CCCC3` (stereo not drawn), the activation is inactive: -6.3%.
For `Cc1ccc(NC(=O)[C@H]2O[C@@H]3OC(C)(C)O[C@@H]3[C@H]3OC(C)(C)O[C@H]32)cc1F`, the activation was inactive: 4.64%.
Consider `Cc1ccc(NC(=O)c2cccc(N3CCCS3(=O)=O)c2)cc1C`, for which the activation is inactive: 39.2%.
As for `CCS(=O)(=O)NCC(c1ccco1)N1CCN(c2ccccc2)CC1` (stereo not drawn), the activation is inactive: -17.7%.
Consider `CCc1ccc(CNC(=O)CSc2c3c(nc4ccc(Cl)cc24)CCCC3)cc1`, for which the activation was inactive: -19.4%.
For `O=C(NCCn1cc(SCc2ccccc2F)c2ccccc21)c1cccs1`, the activation is active: 66.5%.
`Cc1ccc2c(c1)C(c1ccccc1)N(C(=O)c1ccc(S(=O)(=O)N3CCCCC3)cc1)CC(=O)N2` (stereo not drawn): the activation is inactive: 11.6%.
Turning to `CSc1nc(Nc2ccc(C)cc2)c(C#N)c(-c2ccccc2)n1`, the activation was inactive: -5.86%.
The figure for `CCOc1ccccc1NC(=O)Cc1csc(COc2cccc(C)c2)n1` is inactive: -14.1%; for `O=C(NCCc1ccc(Cl)cc1)c1ccc(Cn2c(=O)[nH]c3ccccc3c2=O)cc1` it is inactive: -4.34%.
In the case of `CC(=O)c1cccc(Nc2ncnc3c2cnn3C)c1`, the activation is inactive: -10.9%.
As for `Cc1cccc(NC(=O)CSC2=Nc3ccccc3C3=NC(CCC(=O)NCc4ccc(F)cc4)C(=O)N23)c1` (stereo not drawn), the activation was inactive: -5.25%.
In the case of `CC(=O)c1ccc(NS(=O)(=O)c2cnc(N)nc2)cc1`, the activation is inactive: -7.53%.
For the molecule `COc1ccc2[nH]cc(CCNC(=O)Nc3cccc(F)c3)c2c1`, the activation was active: 93.2%.
For the molecule `CCOc1ccc(CN2C(=O)c3ccccc3Sc3ccc(C(=O)NCCc4ccccc4)cc32)cc1`, the activation was inactive: -5.32%.
Next, `Cc1ccc(-n2c3c(c(=O)[nH]c2=O)C(NS(=O)(=O)c2ccc(C)cc2)(C(F)(F)F)C(=O)N3)cc1` (stereo not drawn): inactive: -0.151%; `COC(=O)c1c(NC(=O)COc2c(C)cccc2C)sc2c1CCCC2`: inactive: 5.92%.
In the case of `CC1CCN(S(=O)(=O)c2ccc(C(=O)Nc3nc4ccc(F)cc4s3)cc2)CC1`, the activation is inactive: -9.02%.
On to `CCOc1ccccc1NC(=O)c1cc2cc(C)ccc2n1C`, for which the activation is inactive: -27.9%.
Next, `CCc1ccc(NC(=O)C2CCC(CNS(=O)(=O)c3cccs3)CC2)cc1` (stereo not drawn): inactive: -6.45%; `COc1cccc(CNC(=O)c2ccc3c(c2)N(C)C(=O)C2CCCCN32)c1` (stereo not drawn): inactive: 7.91%; `COc1ccc(-c2nc(SCC(=O)Nc3ccc4c(c3)OCO4)c(-c3ccccc3)[nH]2)cc1`: inactive: -16.7%.
Next, `COc1ccccc1NC(=O)C1=C(C)Nc2nc(-c3ccco3)nn2C1c1ccccc1` (stereo not drawn): inactive: -14.3%.
Regarding `Cc1ccc(CNc2oc(-c3ccc(COc4ccc(Cl)cc4)o3)nc2C#N)cc1`, the activation was inactive: -16.8%.
Take `CNS(=O)(=O)c1cc(-c2nn3c(C)nnc3c3ccccc23)ccc1C`: the activation was inactive: -5.86%.
As to `CCOC(=O)c1c(NC(=O)c2cc(-c3ccc(Cl)cc3)on2)sc2c1CCCC2`, the activation was inactive: -4.05%.
Regarding `COc1ccc(Nc2nc3c(S(=O)(=O)c4ccc(Br)cc4)nnn3c3ccsc23)c(OC)c1`, the activation is inactive: -15.4%.
